Here are results for 27 cell lines from the supplement of paper PMC4967469.

IC50 is the fitted dose that halves viability relative to control wells, and lower means more sensitive; a limit (>, <) means that the fit lies beyond the doses tested. The AUC spans the tested range (256-fold, ending at the top dose) of the same fit; it is 1 without any effect and falls as sensitivity rises. Where the top dose is marked as inferred, it comes from the curve model; the source does not state it. Where only a bound is given, the exact number is not on record here.

Compound in this assay: C=CC(=O)Nc1cccc(Nc2nc(NC3CCC(N(C)C)CC3)nc3c2ncn3C(C)C)c1 [WZ3105]
Nature of the assay: Viability of human cancer cell lines after 72 h of drug (GDSC screen). As to conditions: top dose inferred. On the procedure: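 Human cancer cell lines in 384-well plates, medium with 10% serum, drug for 72 h over a 256-fold dose range (nine 2-fold or five 4-fold steps up to the top dose). Adherent lines were fixed and stained with the nucleic acid dye Syto60, suspension lines read with resazurin; signal relative to control wells, capped at 0 and 100%. One two-parameter sigmoid per drug and line, fitted in a mixed model over all curves with the slope shared within a line.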

In general, IC50 refers to the midpoint of a concentration-inhibition curve. Regarding “RCC10RGB (kidney, adherent, top dose 1.28 µM)”, the AUC turned out to be 0.954 and the IC50 was greater than 1280 nM.

For “RCC-AB (kidney, adherent, top dose 1.28 µM)”, the AUC is 0.911 and the IC50 was greater than 1280 nM.

On to “RCC-ER (kidney, adherent, top dose 1.28 µM)”, for which the AUC was determined as 0.98 and the IC50 was greater than 1280 nM.

With “RCC-FG2 (kidney, adherent, top dose 1.28 µM)”, the AUC is 0.978 and the IC50 is greater than 1280 nM.

“RCC-JF (kidney, adherent, top dose 1.28 µM)”: the AUC came out at 0.932 and the half-inhibitory concentration (IC50) was greater than 1280 nM.

As to “RCC-JW (kidney, adherent, top dose 1.28 µM)”, the AUC stood at 0.707 and the IC50 was determined as 312 nM.

In the case of “RCC-MF (kidney, adherent, top dose 1.28 µM)”, the AUC turned out to be 0.915 and the IC50 was greater than 1280 nM.

As to “RCM-1 (large intestine, adherent, top dose 1.28 µM)”, the AUC amounted to 0.976 and the IC50 is greater than 1280 nM.

With “RD (rhabdomyosarcoma, adherent, top dose 1.28 µM)”, the AUC amounted to 0.727 and the IC50 stood at 379 nM.

On to “REH (B-cell leukaemia, suspension, top dose 1.28 µM)”, for which the AUC turned out to be 0.46 and the IC50 was 62.7 nM.

Turning to “RERF-GC-1B (stomach, adherent, top dose 1.28 µM)”, the AUC is 0.835 and the IC50 came out at 985 nM.

Take “RERF-LC-KJ (lung adenocarcinoma, adherent, top dose 1.28 µM)”: the AUC came to 0.725 and the IC50 came to 357 nM.

For the cell line “RERF-LC-MS (lung adenocarcinoma, adherent, top dose 1.28 µM)”, the AUC was found to be 0.98 and the IC50 is greater than 1280 nM.

Consider “RERF-LC-Sq1 (lung squamous cell carcinoma, adherent, top dose 1.28 µM)”, for which the AUC worked out at 0.86 and the IC50 is greater than 1280 nM.

Regarding “RF-48 (stomach, adherent, top dose 1.28 µM)”, the AUC was determined as 0.778 and the IC50 turned out to be 584 nM.

Take “RH-1 (rhabdomyosarcoma, adherent, top dose 1.28 µM)”: the AUC is 0.802 and the concentration for half-maximal inhibition (IC50) came out at 512 nM.

In the case of “RH-41 (rhabdomyosarcoma, adherent, top dose 1.28 µM)”, the AUC was 0.893 and the IC50 worked out at 1090 nM.

For the cell line RKN (ovary, adherent, top dose 1.28 µM), the AUC was 0.775 and the IC50 came out at 537 nM.

Consider “RKO (large intestine, adherent, top dose 10.24 µM)”, for which the AUC amounted to 0.319 and the IC50 is 209 nM.

For the cell line “RL95-2 (endometrium, adherent, top dose 1.28 µM)”, the AUC turned out to be 0.896 and the IC50 is greater than 1280 nM.

Turning to “RL (B-cell lymphoma, suspension, top dose 1.28 µM)”, the AUC was determined as 0.716 and the IC50 came to 307 nM.

For “RMG-I (ovary, adherent, top dose 1.28 µM)”, the AUC was determined as 0.794 and the 50% inhibitory concentration (IC50) was found to be 704 nM.

In the case of “RO82-W-1 (thyroid, adherent, top dose 1.28 µM)”, the AUC worked out at 0.96 and the IC50 was greater than 1280 nM.

Take “ROS-50 (B-cell leukaemia, suspension, top dose 1.28 µM)”: the AUC turned out to be 0.961 and the IC50 is greater than 1280 nM.

Regarding “RPMI-2650 (head and neck, adherent, top dose 1.28 µM)”, the AUC is 0.829 and the IC50 was determined as 885 nM.

Take “RPMI-6666 (Hodgkin lymphoma, suspension, top dose 1.28 µM)”: the AUC stood at 0.596 and the IC50 is 155 nM.

Turning to “RPMI-7951 (melanoma, adherent, top dose 1.28 µM)”, the AUC was found to be 0.912 and the IC50 was greater than 1280 nM.
